Whole data set: some 110,000 compounds, median “z-score” near -0.1, cut for the highest 2% near 2. This is one part of the list.

The assay has as its target Metabotropic glutamate receptor 8 (Rattus norvegicus) (UniProt P70579). Put plainly: mGluR8 Gi/Go-coupled signaling modulation – cell-based, rat, thallium flux, HTS, primary screen (AID 488969). To be noted: HEK293 rat mGluR8, GIRK (G protein-gated inwardly rectifying potassium channel) thallium flux, FluoZin2; at 10 µM; stronger effect = higher value; submaximal glutamate (EC20) added with thallium.
Chain of UniProt P70579 (P70579 whole entry, looked up): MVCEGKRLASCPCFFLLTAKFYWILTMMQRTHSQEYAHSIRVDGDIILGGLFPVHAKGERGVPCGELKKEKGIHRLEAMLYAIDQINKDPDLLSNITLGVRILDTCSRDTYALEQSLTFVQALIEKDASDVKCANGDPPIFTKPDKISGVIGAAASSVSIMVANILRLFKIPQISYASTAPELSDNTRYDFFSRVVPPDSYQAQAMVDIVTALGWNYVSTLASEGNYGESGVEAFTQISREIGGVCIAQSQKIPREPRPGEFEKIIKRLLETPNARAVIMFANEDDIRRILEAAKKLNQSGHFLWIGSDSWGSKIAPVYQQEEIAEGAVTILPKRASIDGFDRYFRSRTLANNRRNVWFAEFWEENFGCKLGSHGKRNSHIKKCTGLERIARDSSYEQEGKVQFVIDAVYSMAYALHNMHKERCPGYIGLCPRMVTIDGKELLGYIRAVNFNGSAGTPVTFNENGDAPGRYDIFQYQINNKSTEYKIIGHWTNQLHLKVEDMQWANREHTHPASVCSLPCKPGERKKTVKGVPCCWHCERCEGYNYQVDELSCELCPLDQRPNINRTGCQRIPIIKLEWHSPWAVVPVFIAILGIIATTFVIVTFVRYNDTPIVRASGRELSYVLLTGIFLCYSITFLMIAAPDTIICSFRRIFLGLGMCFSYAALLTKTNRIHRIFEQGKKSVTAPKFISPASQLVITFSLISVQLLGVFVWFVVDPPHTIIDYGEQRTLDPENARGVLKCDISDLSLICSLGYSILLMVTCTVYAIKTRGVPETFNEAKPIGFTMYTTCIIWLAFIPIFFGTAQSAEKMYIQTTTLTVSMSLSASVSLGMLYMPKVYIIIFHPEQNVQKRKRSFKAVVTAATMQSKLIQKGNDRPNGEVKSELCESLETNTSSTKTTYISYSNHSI
For the compound `O=C(CSCc1cccc(CSCC(=O)Nc2ccc3ccccc3c2)n1)Nc1ccc2ccccc2c1`, the z-score amounted to 0.244.

In turn, `Cc1cccc(N(NC(=O)C(C)(C)O)C(=O)c2ccccc2)c1` had a z-score of -0.167.

As for `COC(=O)C1=CN(C(C)C)C=C(C(=O)OC)C1c1cccc(OC)c1`, the z-score is 0.115.

`O=C(Nc1ccc(C(F)(F)F)cc1)C1CC(=O)N(c2ccc3c(c2)OCCO3)C1` (stereo unspecified) had a z-score of -0.396.

In the case of `O=C(CCN1C(=O)c2ccccc2C1=O)Nc1sc2c(c1C(=O)NCc1ccco1)CCCC2`, the z-score is -0.456.

`CSc1nccn1CC(=O)Nc1ccc(F)cc1`: the z-score was determined as 0.0448.

For the compound `COc1cc(C(=O)Nc2nc(-c3cc(C)ccc3C)c(C)s2)ccc1OCC(=O)Nc1ccc(F)cc1`, the z-score is 0.361.

With `Cc1cc(/C=C(/C#N)c2cccc(Cl)c2)c(C)n1C`, the z-score is -0.21.

As to `CCN=C1SC(CC(=O)Nc2sc3c(c2C#N)CCCC3)C(=O)N1CC` (stereo unspecified), the z-score is -0.517.

Compound `Cc1ccc(OCC(=O)N(Cc2ccccc2)C2CCS(=O)(=O)C2)c([N+](=O)[O-])n1` (stereo unspecified) showed a z-score of -0.163.

`O=C(Nc1ccc2oc(-c3ccccc3Cl)nc2c1)c1cncc(Br)c1` yielded a z-score of -0.624.

Compound `Cc1nc2cc(NC(=O)N3CCC(c4ccccc4)C3)ccc2n1C` (stereo unspecified) registered a z-score of -0.227.

Turning to `CC(C)(C)NC(=O)c1cccc(NC(=O)Cc2ccc(Br)cc2)c1`, the z-score was -0.512.

In the case of `CCOC(=O)c1cnc(SC)nc1Oc1cccc(NC(=O)c2ccc(Cl)cc2)c1`, the z-score was -0.164.

`C#CCn1cc(/C=N/NC(=O)COc2cccc3cccnc23)c2ccccc21` registered a z-score of -0.0614.

In the case of `CC(C)Oc1cccc(C(=O)NC(=S)Nc2ccc(Cl)c(C(=O)O)c2)c1`, the z-score was -0.562.

Consider `CCOC(=O)C(C)(C)N(Cc1cccc(C)c1)S(=O)(=O)c1ccc(Cl)c([N+](=O)[O-])c1`, for which the z-score is -0.206.

The compound `N#Cc1cc2c(nc1SCC(=O)Nc1sc3c(c1C#N)CCC3)CCCCC2` showed a z-score of -0.373.

With `COc1cccc(C(=O)Nc2nnc(-c3cccs3)s2)c1`, the z-score came to 0.914.

The compound `COC(=O)c1ccc(N=NNc2cccc(Br)c2)cc1` had a z-score of -0.315.

Compound `Cc1ccc(-c2nnc(N3CCN(C(=O)CN4C(=O)c5ccccc5C4=O)CC3)c3ccccc23)cc1` had a z-score of -0.137.

In turn, `Clc1ccc(CSc2nnc(-c3sccc3-n3cccc3)o2)cc1` gave a z-score of -0.0075.

As to `CCS(=O)(=O)NC(C)C(c1cccs1)N1CCN(c2ccc(F)cc2)CC1` (stereo unspecified), the z-score amounted to 0.062.

On to `COc1ccccc1-n1c(SCC(=O)NC(C)(C)C)nnc1-c1ccco1`, for which the z-score came to 0.0608.

The compound `Cc1cc(-c2ccccc2)nc(N2CCC(C(=O)NC34CC5CC(CC(C5)C3)C4)CC2)n1` returned a z-score of -0.0703.

`COC(=O)c1c(NC(=O)C2CC=CCC2C(=O)O)sc(C)c1C` (stereo unspecified) displayed a z-score of 0.85.

Regarding `S=C(NC1CCCCC1)c1ccc2c(c1)OCO2`, the z-score is -0.0677.

`O=S(=O)(c1ccccc1)c1nc(-c2ccco2)oc1NCCCN1CCOCC1` registered a z-score of -0.319.

Consider `CCC(=O)c1ccc(N2CCN(C(=O)Cc3ccccc3)CC2)c(F)c1`, for which the z-score is -0.255.

For `CSc1ccc(S(=O)(=O)NCCOc2ccccc2C)cc1`, the z-score was -0.0297.

`CCc1ccc(OCc2nc(-c3ccccn3)no2)c(Br)c1` gave a z-score of 0.404.

Compound `O=c1c(F)cn(C2CCCO2)c(=O)n1Cc1c(Cl)cccc1Cl` (stereo unspecified) returned a z-score of -0.131.

`CCN(CC)C(=O)N1CCN(S(=O)(=O)c2ccc(C)cc2)CC1` displayed a z-score of -0.103.

The compound `COc1cc(C(=O)N2CCN(c3ccc([N+](=O)[O-])cc3)CC2)ccc1OCc1c(C)noc1C` registered a z-score of -1.12.

On to `O=C(CSc1nnc(CNc2ccccc2)o1)N1CCc2ccccc21`, for which the z-score was -0.0854.

`CC1CCCCC1NC(=O)COC(=O)c1ccccn1` (stereo unspecified) registered a z-score of -0.0412.

For the compound `CC(C)(C)NC(=O)Cn1nnnc1-c1nonc1N`, the z-score was found to be 0.603.

Turning to `CCOC(=O)C1CCCN(Cc2cc(Br)c(OC)cc2OC)C1` (stereo unspecified), the z-score is -0.00798.

The compound `CCOc1ccc2nc(C(=O)N3CCCC(C)C3)sc2c1` (stereo unspecified) gave a z-score of -0.253.

`O=C(COC(=O)c1ccccn1)Nc1nccs1` returned a z-score of -0.313.

The compound `O=C(NNc1cccc(Cl)n1)Nc1ccc(Cl)cc1` registered a z-score of 0.0783.

Take `Cc1ccc(N(C(C)C(=O)Nc2ccccc2C(=O)N2CCOCC2)S(C)(=O)=O)cc1C` (stereo unspecified): the z-score is 0.699.

`O=C(N1CCOCC1)N(CCN1CCOCC1)Cc1cccc2ccccc12` registered a z-score of 0.0182.

As for `Cc1ccc(S(=O)(=O)NCCc2ccncc2)cc1`, the z-score is -0.472.

On to `c1csc(-c2nc3c4ccccc4c4ccccc4c3[nH]2)c1`, for which the z-score stood at 0.232.

Turning to `CCN(CC)CCCNC(=O)c1nn(-c2cccc(OC)c2)c(=O)c2ccccc12`, the z-score was -0.854.

The compound `CCc1ccc(OCC(=O)NC(NC(=S)Nc2ccccc2OC)C(Cl)(Cl)Cl)cc1` (stereo unspecified) displayed a z-score of -0.163.

`O=c1cc(NCC2CCCO2)[nH]c(=O)n1-c1ccc(Cl)cc1` (stereo unspecified) displayed a z-score of -0.29.

In turn, `NCC(O)COc1ccc2c(c1)OCO2` (stereo unspecified) returned a z-score of -0.185.

As for `Cc1ccc(OCC(=O)N/N=C/c2ccco2)cc1`, the z-score is -0.143.

Consider `COCCNC(=O)C(c1ccc(C)o1)N(C(=O)c1snc(C(N)=O)c1N)c1ccc(C)cc1` (stereo unspecified), for which the z-score was -0.867.

`Cc1ccc(NC(=O)N2CCC(NC(=O)C(C)(C)C)CC2)cc1` registered a z-score of -0.173.

The compound `CCCCOc1ccc2ccccc2c1C=O` yielded a z-score of -0.427.

As for `C=CCn1c(N)c(C(=O)Nc2ccccc2OC)sc1=S`, the z-score was found to be 0.333.

As for `COc1cc2c(cc1OC)CN(CC(=O)Nc1ccc3c(c1)OC(F)(F)O3)CC2`, the z-score is -0.249.

Take `O=C(Nc1nccs1)c1cccc(N2C(=O)C3C4C=CC(C4)C3C2=O)c1` (stereo unspecified): the z-score is -0.0728.

`Cc1ccc(C2=NN(CC(=O)NCc3cccnc3)C(=O)CC2)cc1`: the z-score is -0.0412.

Consider `Cc1cc(C)c(S(=O)(=O)N2CCCCC2)c(C)c1N(C)S(=O)(=O)c1ccccc1`, for which the z-score is -0.375.

`N#Cc1nc(COc2ccc(Cl)cc2)oc1N1CCCCCC1` came in with a z-score of -0.453.

The compound `Cc1ccc(N(CCC#N)C(=O)CSc2ccc3c(c2)OCCO3)cc1` registered a z-score of -0.201.

`COc1ccc(N(C(=O)C(C)C)S(=O)(=O)c2ccc3c(c2)n(C)c(=O)n3C)cc1` registered a z-score of 0.192.

Compound `CC1=C(C)CC(C(=O)NCC(=O)c2ccccc2)C(C(=O)O)C1` (stereo unspecified) displayed a z-score of 0.264.

`CCOc1ccccc1Nc1ncccc1C(=O)N1CCCC1`: the z-score was 1.1.

As for `Cn1cnc([N+](=O)[O-])c1Sc1ccccc1`, the z-score worked out at 0.0869.

`O=C1c2ccccc2C(=O)N1CCc1nn[nH]n1` had a z-score of -0.346.

`Cc1cc(C(=O)OCCO)c(C#N)c(N)n1` gave a z-score of 0.857.

With `O=CN1CCN(C2CC(=O)N(c3ccc4c(c3)OCO4)C2=O)CC1` (stereo unspecified), the z-score turned out to be 0.502.

Compound `O=S(=O)(NCc1ccc2c(c1)OCO2)c1cccc2cccnc12` returned a z-score of 0.102.

`CN(C)CCN(Cc1ccccc1)c1ccnc(N(C)C)c1C#N` had a z-score of 0.043.

Compound `O=C(NNS(=O)(=O)c1ccccc1[N+](=O)[O-])c1ccc(O)cc1` came in with a z-score of -0.424.

Compound `O=C(C1CCN(S(=O)(=O)c2cccnc2)CC1)N1CCN(C2CCCC2)CC1` returned a z-score of -0.318.

For the compound `O=C(c1ccc(Cl)c(S(=O)(=O)Nc2ccc(F)cc2)c1)N1CCN(c2ccccn2)CC1`, the z-score was -0.254.

As to `CCOc1ccc(CCNC(=O)CSc2cc(=O)n(C)c3ccccc23)cc1OCC`, the z-score was -0.0411.

`O=C(C[n+]1ccc2ccccc2c1)Nc1cc(C(F)(F)F)ccc1Cl`: the z-score is -0.746.

The compound `O=C(Nc1ccccc1)C1CC(=O)n2ncnc2N1` (stereo unspecified) had a z-score of -0.09.

With `CCn1c(C)nc2c1C(=O)c1ccccc1C2=O`, the z-score was -0.0161.

On to `CC1CCCCN1CCNC(=O)c1ccc2c(=O)n(CCc3ccccc3)c(=O)[nH]c2c1` (stereo unspecified), for which the z-score stood at 0.188.

`Oc1[nH]c2ccccc2c1/C=N/N1CCCCC1` returned a z-score of -0.215.

In the case of `COc1cccc(NC(=O)c2cnsn2)c1`, the z-score was -0.046.

`N#Cc1c(N)nc2c(c1N)CC(CCl)O2` (stereo unspecified) showed a z-score of -0.0539.

`CC1(C)COC(c2cccn2Cc2ccccc2Cl)=N1` gave a z-score of -0.0723.

In turn, `Cc1nc(N2C(=O)C(=O)/C(=C(/O)c3ccccc3)C2c2ccco2)sc1C` (stereo unspecified) displayed a z-score of -0.802.

`CC(C)N(C(=O)Cn1c(SCC(=O)NCc2ccc3c(c2)OCO3)nc2ccccc21)C(C)C` displayed a z-score of 0.0294.

Take `CC(=O)Nc1ccc(S(=O)(=O)N2CCc3c(Cl)cccc3C2)cc1`: the z-score is 0.212.

In the case of `CC(C)(C)C(=O)[C@H]1[C@H](c2ccccc2)[C@@]2(N=C(c3ccccc3)OC2=O)C2c3ccccc3C=NN21` (stereo partly specified), the z-score is -0.0699.

On to `CCOc1c(CNCCNC(=O)c2nonc2N)cccc1OC`, for which the z-score was -0.21.

For the compound `CCCC(=O)Nc1ccc(NC(=O)Cc2ccccc2)cn1`, the z-score is -0.239.

The compound `Oc1ccccc1/C=N/n1c(-c2cccs2)n[nH]c1=S` displayed a z-score of 0.8.

`Cc1cc(C(=O)NCC(C)C)c2ccccc2n1` came in with a z-score of -0.15.

Consider `Cc1ccc(-n2sc3ccccc3c2=O)cc1S(=O)(=O)N1CCCCC1`, for which the z-score came to 0.479.

Regarding `Cc1cn2c(-c3ccc(Cl)cc3)nnc2s1`, the z-score is -0.431.

Take `Cc1ccc(N=C2SCCCN2C(=O)c2ccco2)cc1Cl`: the z-score amounted to 0.956.

As to `Cc1nc2cc(C(=O)O)ccc2n1-c1ccc(F)cc1F`, the z-score is -0.0543.

In turn, `Cc1cccc(C)c1NC(=S)N(C)CCc1ccccn1` yielded a z-score of -0.153.

In turn, `Cn1nc(-c2ccc(Cl)cc2)c2cc(C(=O)NCC3CCCO3)sc21` (stereo unspecified) yielded a z-score of -0.177.

For the compound `COCCn1c(SCC(=O)c2c[nH]c3ccccc23)nnc1-c1ccncc1`, the z-score is -0.309.

The compound `Cc1cc(N/C=C/C(=O)c2ccc(Br)cc2)no1` came in with a z-score of -0.0465.

As for `COc1cc(C2/C(=C(/O)c3ccc(F)cc3)C(=O)C(=O)N2CCCC(=O)O)ccc1O` (stereo unspecified), the z-score was -0.85.

For the compound `Cc1cc(Cl)ccc1OCC(=O)NC(=S)Nc1ccccc1N1CCOCC1`, the z-score came to 0.195.

`CSc1nc(C)cc(Oc2ccc(OCCOc3ccccc3)nn2)n1`: the z-score is -0.702.

As for `Cc1ccc(NC(=O)C2CCCN(S(=O)(=O)c3cnc[nH]3)C2)cc1C` (stereo unspecified), the z-score was -0.189.

As for `COC(=O)/C=C1/SC(=Nc2ccc(C)cc2C)NC1=O`, the z-score was found to be 0.161.

In the case of `COc1cccc(-n2c(C)nc3c(cnn3-c3ccc(Cl)cc3)c2=O)c1`, the z-score is 0.188.

Consider `CCCN1C(=O)c2cc(C(=O)NCc3cccs3)ccc2C1O` (stereo unspecified), for which the z-score came to 0.00391.

For the compound `COc1ccc(S(=O)(=O)NCCSc2ccc(C)cc2)cc1OC`, the z-score is -0.805.

For `CCOC(=O)C(=O)/C(=C\N(C)C)c1onc(-c2ccccc2)c1C(=O)OC`, the z-score is -0.0619.

Compound `CCCCNS(=O)(=O)c1ccc(OC)c2ncccc12` came in with a z-score of 0.248.

`COCCNc1nc(C(C)(C)C)nc2c1nnn2Cc1ccccc1Cl` registered a z-score of 0.404.

The compound `COc1ccccc1-c1noc(CCC(=O)Nc2ccccc2Cl)n1` returned a z-score of -0.687.

For `COc1ccc(OC)c(S(=O)(=O)N(C)CC(=O)N2CCc3ccccc3C2)c1`, the z-score turned out to be 0.264.

The compound `O=C(CCC(=O)N1CCN(S(=O)(=O)c2ccc(Cl)cc2)CC1)NC1CCCc2ccccc21` (stereo unspecified) showed a z-score of 0.0235.

The values above are taken from PubChem BioAssay AID488969 (Vanderbilt High Throughput Screening Facility, 2010).
